Results from the supplement of paper PMC4166925.
± gives the standard deviation of the averaged measurements. Over roughly 33,000 sequences, “E-score (dimensionless, -0.5 to 0.5)” has its median near -0.049; the highest 2% begin near 0.37. This is one part of the list.

test system: T1, PmTbr T-box DNA-binding domain (GST fusion); assay: PBM E-score of 8-mer (E-score (dimensionless, -0.5 to 0.5)); Tbr is Tbrain of the sea star Patiria miniata (Pm) or the sea urchin Strongylocentrotus purpuratus (Sp); higher = stronger binding preference; most listed sequences are background and not binding sites; details: the construct has about 5 more residues each side
T1 sequence: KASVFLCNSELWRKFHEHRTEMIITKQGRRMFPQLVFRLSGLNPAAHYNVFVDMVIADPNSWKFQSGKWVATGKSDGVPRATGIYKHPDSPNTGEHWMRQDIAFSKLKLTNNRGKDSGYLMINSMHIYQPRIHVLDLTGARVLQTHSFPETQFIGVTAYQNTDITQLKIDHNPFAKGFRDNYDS
Procedure, shortened: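 Universal Agilent oligonucleotide arrays, made double-stranded by primer extension, were incubated with 200 nM GST-fused Tbr T-box DNA-binding domain in PBS (pH 7.5). The protein was expressed in BL21 E. coli at 20 °C and purified by glutathione affinity chromatography. After scanning and quantification, the Universal PBM Analysis Suite assigned an enrichment E-score to each ungapped 8-mer, averaged over duplicate arrays.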

In order of falling “PBM E-score of 8-mer” value:
1. AGTGTGAG  0.4585 ± 0.0031
2. GGTGCGGA  0.405 ± 0.015
3. CGGGTGTC  0.4001 ± 0.002
4. CACCTGAC  0.387 ± 0.018
5. TGTCAACA  0.378 ± 0.0046
6. ATCGCGCC  0.368 ± 0.016
7. AGTGCTAG  0.358 ± 0.0077
8. CACCAAAC  0.326 ± 0.051
9. CGCGAGAA  0.32 ± 0.0046
10. AATCACCT  0.311 ± 0.017
11. CGAGTGTC  0.294 ± 0.018
12. AGCGCCTA  0.291 ± 0.0034
13. GCGATAAC  0.283 ± 0.012
14. CGTGTAAA  0.272 ± 0.062
15. GTGACCAC  0.27 ± 0.024
16. CAAGTGGC  0.268 ± 0.028
17. GCGCGACC  0.2651 ± 0.0023
18. CACTGTCA  0.261 ± 0.042
19. AGAAGGCG  0.25289 ± 0.00013
20. GGGTGGGA  0.237 ± 0.011
21. CACCATCG  0.232 ± 0.011
22. GTGAACAA  0.226 ± 0.037
23. AACAGCTT  0.224 ± 0.025
24. CGCGCTAC  0.222 ± 0.0032
25. GCACCGTA  0.22 ± 0.041
26. TCGCGGCA  0.218 ± 0.03
27. ACTTGACT  0.215 ± 0.013
28. GCGCCTAC  0.215 ± 0.031
29. CTATTACA  0.215 ± 0.027
30. AATCTGTC  0.214 ± 0.018
31. CACGCTAC  0.21 ± 0.0061
32. ACCCTCTC  0.197 ± 0.028
33. ACGCTTGC  0.193 ± 0.011
34. ACACGCAT  0.186 ± 0.035
35. CGCGCTTC  0.186 ± 0.003
36. GACGACGA  0.17 ± 0.0082
37. ACTCGGTG  0.165 ± 0.033
38. CCTGCCAA  0.158 ± 0.0047
39. ATTGGCGA  0.156 ± 0.027
40. CGCCTGCA  0.142 ± 0.04
41. CATGTGAG  0.14 ± 0.046
42. CTACTTGC  0.139 ± 0.013
43. CAGCTTTA  0.128 ± 0.012
44. CGCCACCG  0.126 ± 0.059
45. ATCGCGTC  0.119 ± 0.025
46. CTCGCAAA  0.118 ± 0.012
47. ACACGGAG  0.112 ± 0.013
48. CGCCACGC  0.104 ± 0.052
49. CTGTGACC  0.102 ± 0.064
50. ACTGGTGG  0.0992 ± 0.011
51. AACGTCCC  0.0795 ± 0.045
52. TAGCAAAA  0.0785 ± 0.04
53. CTCGCCTA  0.0764 ± 0.047
54. AACTACAA  0.0706 ± 0.014
55. CTTGGATA  0.0665 ± 0.026
56. CTAGTATA  0.0653 ± 0.03
57. AACTAGCT  0.0609 ± 0.033
58. GAGGAACA  0.0589 ± 0.018
59. GCCTTGCA  0.0561 ± 0.089
60. ACGATACA  0.0549 ± 0.027
61. AACGCTGA  0.0543 ± 0.009
62. CAGGAAAA  0.0531 ± 0.058
63. CAAATCCA  0.0518 ± 0.015
64. GCACAAAA  0.0487 ± 0.028
65. CAGCGGCG  0.0451 ± 0.0026
66. AACTAGGG  0.0438 ± 0.029
67. CAATATGC  0.0393 ± 0.036
68. AAAAACCA  0.0231 ± 0.006
69. ACAAAAAA  0.0209 ± 0.1
70. AAGTGTAT  0.019 ± 0.037
71. CCTAGAAA  0.0138 ± 0.071
72. AAAGGAGC  0.0134 ± 0.068
73. ACCCCGAA  0.0114 ± 0.054
74. TGTAAAAA  0.0111 ± 0.14
75. GGTATTAA  0.0101 ± 0.018
76. ACCAGTTG  0.00957 ± 0.017
77. CGCACAAA  0.00904 ± 0.0019
78. CCCGCAAA  0.00826 ± 0.029
79. AGTCCTAC  0.00754 ± 0.011
80. CGATCGCC  0.00664 ± 0.058
81. ATAAGCTG  0.00532 ± 0.032
82. CGACCATA  0.00341 ± 0.022
83. CGTCATCC  -0.00112 ± 0.0046
84. AAACTCTC  -0.00208 ± 0.031
85. ATTACTTG  -0.00346 ± 0.044
86. CCTATCAA  -0.00522 ± 0.045
87. CCTGATCA  -0.00924 ± 0.015
88. AGCATCTC  -0.0162 ± 0.0012
89. CGATTGCC  -0.0231 ± 0.013
90. AGGGTACT  -0.0255 ± 0.011
91. GAACCTCA  -0.0283 ± 0.015
92. AGTGCACG  -0.0285 ± 0.048
93. AACTCTAT  -0.0307 ± 0.014
94. ATGCGATC  -0.0333 ± 0.042
95. CCCGTGGA  -0.0346 ± 0.024
96. CGCTCCTA  -0.0357 ± 0.017
97. GTGGACAA  -0.0368 ± 0.05
98. CGGAGCGA  -0.0369 ± 0.015
99. CCTACTGA  -0.0371 ± 0.015
100. CACGACTG  -0.0385 ± 0.012
101. ATCTCATC  -0.0393 ± 0.011
102. AGACTGAG  -0.0413 ± 0.013
103. ATCCAGCG  -0.0414 ± 0.024
104. TACCTAGA  -0.0455 ± 0.092
105. GAACGGCC  -0.0495 ± 0.0031
106. AATCTTTA  -0.0517 ± 0.059
107. GTCCATGA  -0.052 ± 0.031
108. AAAGACGC  -0.0553 ± 0.012
109. CGCAGGAA  -0.0564 ± 0.03
110. AACGATAA  -0.058 ± 0.085
111. CCGATTCG  -0.0584 ± 0.08
112. GCCACGAC  -0.0614 ± 0.052
113. GGGTTTCA  -0.0619 ± 0.0074
114. GGGTCGGA  -0.0673 ± 0.029
115. CGCCGCAA  -0.0674 ± 0.0034
116. AATACGGT  -0.0679 ± 0.021
117. ATAACCCG  -0.072 ± 0.06
118. GAAGTACA  -0.072 ± 0.067
119. CGAACTAA  -0.078 ± 0.081
120. AAACAGGG  -0.081 ± 0.025
121. CTGGATCC  -0.081 ± 0.038
122. CGAACCCA  -0.0821 ± 0.017
123. AGCCCGCT  -0.0831 ± 0.14
124. ACTCAGAG  -0.0864 ± 0.05
125. AAATTCGT  -0.0925 ± 0.06
126. AATGATGT  -0.09295 ± 0.00084
127. GAAGCCTC  -0.0948 ± 0.07
128. ACGGACTG  -0.095 ± 0.026
129. CCAGCTAC  -0.0956 ± 0.0014
130. ATGCGCTG  -0.097 ± 0.077
131. CAGACAAC  -0.0993 ± 0.092
132. AGGTTTTA  -0.101 ± 0.068
133. GATCATAA  -0.101 ± 0.0013
134. ATCGGAGA  -0.102 ± 0.012
135. CGGCTCCC  -0.105 ± 0.0077
136. CTACCATA  -0.107 ± 0.017
137. TAAGCCCA  -0.108 ± 0.0083
138. AGAGGACG  -0.109 ± 0.059
139. ACAATGCC  -0.11 ± 0.052
140. AAAAGCTC  -0.113 ± 0.048
141. AACCATAT  -0.114 ± 0.024
142. GAACTCTC  -0.116 ± 0.072
143. CATTTGTA  -0.119 ± 0.1
144. AACCTAAG  -0.12 ± 0.084
145. AAAGTTAC  -0.121 ± 0.077
146. TACAAATA  -0.123 ± 0.0095
147. ATTCGGGG  -0.123 ± 0.0065
148. AAACTTGG  -0.127 ± 0.039
149. ACTACTAA  -0.13 ± 0.069
150. AACAGATG  -0.134 ± 0.028
151. CAGAAGGA  -0.1363 ± 0.00032
152. ACTAGCCA  -0.136 ± 0.0066
153. ATACGTCG  -0.139 ± 0.071
154. CCTGGGAA  -0.14 ± 0.058
155. CTCTTTCC  -0.141 ± 0.021
156. CTATACAC  -0.144 ± 0.038
157. AGGACGTC  -0.149 ± 0.034
158. GGAAATCC  -0.15 ± 0.079
159. CATGGTTA  -0.15 ± 0.018
160. CAGTTAAA  -0.159 ± 0.11
161. AAAGGATC  -0.159 ± 0.009
162. AAGTCCTA  -0.163 ± 0.052
163. CCTCTAAA  -0.167 ± 0.0043
164. CTAGTCTA  -0.169 ± 0.008
165. AAACAAAA  -0.171 ± 0.098
166. CCTAGACC  -0.171 ± 0.057
167. AGAGCGGA  -0.175 ± 0.012
168. AGTTCCGG  -0.175 ± 0.016
169. CCGTATGC  -0.176 ± 0.039
170. TCTCAAAA  -0.18 ± 0.015
171. GCCTTACC  -0.18 ± 0.014
172. CATTACGA  -0.181 ± 0.0071
173. GTCCCTAA  -0.182 ± 0.0029
174. AGCAAAAG  -0.184 ± 0.071
175. GCCAAGAA  -0.184 ± 0.05
176. CAGGATGA  -0.185 ± 0.013
177. CCCCCCAA  -0.188 ± 0.0032
178. CGGACCAC  -0.19 ± 0.016
179. ACGAACCT  -0.194 ± 0.047
180. AACCAGGA  -0.195 ± 0.062
181. AGACTCAT  -0.197 ± 0.051
182. CCTACGGC  -0.197 ± 0.06
183. AAAGACAT  -0.199 ± 0.028
184. CTCGATAC  -0.2 ± 0.015
185. TGAGTCCA  -0.202 ± 0.027
186. GATCCTTA  -0.204 ± 0.064
187. ACCAGTAG  -0.205 ± 0.061
188. TCCCTGAA  -0.211 ± 0.043
189. CTATAGAG  -0.212 ± 0.029
190. AGCAGAGC  -0.213 ± 0.11
191. TAGACATA  -0.213 ± 0.071
192. CCCGGTAA  -0.214 ± 0.061
193. GGAGTAAA  -0.215 ± 0.013
194. ACGGTCAA  -0.225 ± 0.065
195. CCTTGGTC  -0.226 ± 0.017
196. AAGGACTT  -0.228 ± 0.067
197. ATGTAACC  -0.231 ± 0.011
198. ACTACCCC  -0.232 ± 0.063
199. AGCCCTCG  -0.233 ± 0.059
200. TTCTTAAA  -0.246 ± 0.095
201. TACTTAAA  -0.246 ± 0.057
202. GGTTAGGA  -0.248 ± 0.02
203. AAACATAC  -0.249 ± 0.03
204. TATCTCCA  -0.251 ± 0.012
205. ATTCGGAA  -0.253 ± 0.0041
206. CTGTACGA  -0.254 ± 0.0088
207. GGTCCCGA  -0.258 ± 0.059
208. ATAGCCTC  -0.264 ± 0.0037
209. CCGCCGTA  -0.273 ± 0.021
210. GTTTAGGA  -0.28 ± 0.0054
211. AAGGGTCC  -0.2907 ± 0.0029
212. AGCCTCAT  -0.301 ± 0.043
213. AGGGGCAT  -0.304 ± 0.039
214. AAGGGTCT  -0.305 ± 0.043
215. ATGCGTTC  -0.317 ± 0.087
216. AAGACTCC  -0.346 ± 0.035
217. ATAAAGGG  -0.378 ± 0.031
218. GACTGTAC  -0.379 ± 0.03
219. GCCGGATA  -0.3846 ± 0.00064
